From publication PMC12136788 come the findings set out here.

Some of the results follow.

T1: UNK ZnF1-3 (human, UniProt Q9C0B0 31-174)
T1 sequence: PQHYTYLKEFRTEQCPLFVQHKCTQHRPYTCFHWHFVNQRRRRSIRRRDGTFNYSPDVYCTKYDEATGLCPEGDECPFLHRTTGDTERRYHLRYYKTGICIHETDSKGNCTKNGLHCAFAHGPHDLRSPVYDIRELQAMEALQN

B1: chr1:39494564:39494565:+_ENSG00000168653_ENST00000372967|hu_hu|hu_hu_hu_mus_True|98_98 (ssRNA)
RNA: GGGAGUUCUACAGUCCGACGAUCAUGCAUUCGCCUCAUCGUUUUCUACCGAAGCAAGCACUCUUCGAAGUCAUCGAACUCUAUCUUGCACUCCUUUUUCGCCCGGGUCCCACCGAUCCCGUGUGCACACUCUAUCCACUCUUUCAACAGAGGAUUGAGCAUCA
B2: 42638195_42638315_1313_CDS_ENSMUSG00000025184_ENSMUST00000026188|mouse|control|control (ssRNA)
RNA: GGGAGUUCUACAGUCCGACGAUCUGCACUCAUUUCUAUAUAAUCUGAGAAAUUUCUCAUGUUGCCACUACUCUCACCAGAUUCUCCAACUGCACCUGUACAAGAGCUGCCUUCAGUUACAGGGUCACAAGCUGUACCUGCAAUCAACAGAGGAUUGAGCAUCA
B3: 125499526_125499646_756_3pUTR_ENSMUSG00000091337_ENSMUST00000164756|mouse|control|control (ssRNA)
RNA: GGGAGUUCUACAGUCCGACGAUCCUGUGAGACCAAAGAGGAACGAUUUGGUCUUUUUCUCCUCGCGAUUCUCAGGUUUAACACUCCUCCUUCCUCGAUUCUCCUUUUCCACAAUGCAUGGUCAUUCACUGUCCCGUCUUCUAUCAACAGAGGAUUGAGCAUCA
B4: chr3:182775190:182775191:-_ENSG00000078070_ENST00000265594|hu_hu|FALSE|FALSE (ssRNA)
RNA: GGGAGUUCUACAGUCCGACGAUCCUGCACACUACAGUCUCUUUCAAACAAGUACACAGCAUUGCCAUGGUGAUCACCAAACACCUGGACUUCUACAUGCCUCGGUGUGUCUACAAACUUCUCGAUCAGCAUAGCAUCAUCAUUCAACAGAGGAUUGAGCAUCA
B5: chr2:5814250:5814251:-_ENSMUSG00000025816_ENSMUST00000102981|mus_hu|FALSE|FALSE (ssRNA)
RNA: GGGAGUUCUACAGUCCGACGAUCUUCCUUUCCGGUUUCUGAAUUUCUGGUAGAACUGCACAGAAUGGUUUGAUAACUUCUAAAAAUUUGAUGCCCAUGGCUGCUGCUGGGGAGGCCCAGGGGGAAACCGCGGCCUCGGCGCUGCAACAGAGGAUUGAGCAUCA
B6: chr4:144460044:144460045:+_ENSG00000153147_ENST00000283131|hu_mus|hu_hu_hu_mus_False|1_28 (ssRNA)
RNA: GGGAGUUCUACAGUCCGACGAUCACGGUCCAUAGCCUGAAGAUCAACUUGCGGAUUCCAAUCUGAGUCAUAUAAAAUGACUACAUCAGCAGUUGCAAGAUUGAUGCCAAGACCACCAGCACGUGUGCUUAGCAUAAAAACAAACAACAGAGGAUUGAGCAUCA
B7: chr12:16048344:16048345:+_ENSG00000023734_ENST00000419869|hu_hu|hu_hu_hu_mus_True|8_78 (ssRNA)
RNA: GGGAGUUCUACAGUCCGACGAUCAGAUCGUCCAUAAGUAAUAACCAAAAUCUCUCCCUCAGGAAUAUACUCCAUGCUGCUAACAGACAUAUUAAAAUUCAGAGAUUUCACUUCUGUCAUUGUGGCAUGAUCCCAAAGCCGAACCAACAGAGGAUUGAGCAUCA
B8: chr7:56126341:56126342:+_ENSG00000146731_ENST00000540286|hu_mus|hu_hu_hu_mus_True|1_108 (ssRNA)
RNA: GGGAGUUCUACAGUCCGACGAUCCAUAUUUCUCCUUUUGGCUCUGCGCAGAGCUACGAUCCCUUCUUUCGCAAGGGCAUCUAAGGAAAAGGGGUCAAUCCCCUUUUGAUUAAUAACGACAAAUCCUUUAUCUGAGUCGCCACACAACAGAGGAUUGAGCAUCA
B9: chr1:163117127:163117128:-_ENSG00000143248_ENST00000313961|hu_mus|hu_hu_hu_mus_False|38_48 (ssRNA)
RNA: GGGAGUUCUACAGUCCGACGAUCUGCUACAAAGGAUGUAACUCAACUCACAGGGCAACUUUUGGAAGCCUGACCAGAUGACUACUUGAUUAACUCCUGAUAAAACUCAGAGCGCACAAAGCGGGGCAGAGAAUCCUUCUCCAUCAACAGAGGAUUGAGCAUCA
B10: 113315486_113315606_1080_CDS_ENSG00000125630_ENST00000417433|human|control|control (ssRNA)
RNA: GGGAGUUCUACAGUCCGACGAUCAAGGUCUAUGCCCAUUGUAAAAAUCCUCAUCAAAUUGUCAGUGUUCAUGGAAACACUGGUCUUCUGAGCCUUCUUAUCAAAAGCUAUUUUAAUAGACACUAACCAACCUUCCAGUUUUUCCAACAGAGGAUUGAGCAUCA
B11: chr21:38528988:38528989:+_ENSG00000182670_ENST00000355666|hu_mus|FALSE|FALSE (ssRNA)
RNA: GGGAGUUCUACAGUCCGACGAUCGAAAUCAAGCUCCUUGAGAGAUGCUCCGUACCGAGUGAAAAAGGGUCCUAUGGCAUCCAAGCCAAAACUAUUCAGUCUCUGGAUCCAGGGAGCCAACUUGGGGUCUAACUCUUUAAGCUCCAACAGAGGAUUGAGCAUCA
B12: chr4:48472875:48472876:-_ENSMUSG00000028345_ENSMUST00000030030|mus_hu|motif|central (ssRNA)
RNA: GGGAGUUCUACAGUCCGACGAUCACUAUUUAGCCUAGAGCCAUCUUCAAGGGUCUCUGUUACAAAUUUCCUUAUCAUUUCGGUCCAACUGCAAUCCUUCUGCAAAGUUGACGCAUUUGCCAGGGAGACCAUGAUAUCAGACAGCAACAGAGGAUUGAGCAUCA
B13: chr8:104444897:104444898:+_ENSG00000164934_ENST00000297579|hu_hu|motif|central (ssRNA)
RNA: GGGAGUUCUACAGUCCGACGAUCUGCUGUAAAAAUGAAAGCUUCCAUAGGGUUCCAACAGAUUGUAUUUGUUCUCAUAUCGGAGAUAACCUUUUUCAAAGGAGUAGCUUGCCUCAUAUCGUACAGUACUAUAUUCCUGUCAGACAACAGAGGAUUGAGCAUCA
B14: chr13:59231463:59231464:+_ENSMUSG00000055254_ENSMUST00000079828|mus_mus|motif|central (ssRNA)
RNA: GGGAGUUCUACAGUCCGACGAUCAAAUGGAAACACUGGUCUCCCUCGGUCUAAAUGACUACCCAAAUACCUGUAAAUUUCGGUAUAAAUUUACCCUCUCUUUUCGGAAAACCAAUGACCAUGUGCGGGCGCAAAUCUCCAGGCCAACAGAGGAUUGAGCAUCA
B15: chr11:4127340:4127341:+_ENSG00000167325_ENST00000300738|hu_mus|hu_hu_hu_mus_False|58_78 (ssRNA)
RNA: GGGAGUUCUACAGUCCGACGAUCGGCAUAGUCAGGGUGCUUCGUGGUCAAGGUCGCAGCUGUUUCAGCAGCCAGGGUAUCUAGUUCCACUGUGGUGACCCCACUAUAUAGGCCUUGGAUUACUUUCAUGGUGAUCUGAGCAGGCAACAGAGGAUUGAGCAUCA
B16: chr10:41618152:41618153:+_ENSMUSG00000038332_ENSMUST00000041438|mus_hu|motif|central (ssRNA)
RNA: GGGAGUUCUACAGUCCGACGAUCCGGCAUCUCAUCCACACUGUGAUUGCCAUUUGUAAUGUCACAGAUGCAGUAGUUGCGGACAGAAGGAGGUCUGAAUGUGUGGCCACCAUCACAAUGAAUUUCUGGACUGAUUCCACAGCCCAACAGAGGAUUGAGCAUCA
B17: chr6:40197388:40197389:+_ENSMUSG00000057716_ENSMUST00000061740|mus_mus|mus_mus_mus_hu_False|38_38 (ssRNA)
RNA: GGGAGUUCUACAGUCCGACGAUCGAGACACUGGGGUGGAUUUAUUCCACCUCUGUUUGGGUGCUAGCCACUAAGACUGUUAUUUUGGGAUUCAUGGCCUUGAAGAUCAAGAGGGAAAGGAAGAGGAUGGAAAGAGUCAAGAGUCAACAGAGGAUUGAGCAUCA
B18: chr7:93623566:93623567:-_ENSG00000105829_ENST00000222547|hu_mus|FALSE|FALSE (ssRNA)
RNA: GGGAGUUCUACAGUCCGACGAUCCAACAAAUUCAAAGCCCACACUAACUUCCAUCACCUCAGUUUAAUAAUCCAAUAAAUGACAAAAAAGACAAACAAUGAAAACAGCAUCAUAUAGCAUAGCAAUUUUGUUUGGCUCCCUCUCAACAGAGGAUUGAGCAUCA
B19: chr11:87793471:87793472:-_ENSMUSG00000020483_ENSMUST00000020775|mus_mus|mus_mus_mus_hu_False|58_88 (ssRNA)
RNA: GGGAGUUCUACAGUCCGACGAUCUGGACUUGAAAAUAAAAGAAUAAGCUAGAUUUCCCACCCCCCCACAUUGUCAACCCUAUGCGAGAGUUUUGAAGGCGACUCAUGAAAAUCAGCAGCUCAAACGGCAAUGACCACCCCACCCAACAGAGGAUUGAGCAUCA
B20: chr5:128441001:128441002:+_ENSG00000066583_ENST00000173527|hu_mus|motif|central (ssRNA)
RNA: GGGAGUUCUACAGUCCGACGAUCACACACGUGCGUUUCUACUCCAAACAACACGACACUCCGGACGCCAGGAAUCUCGGCGGACGCUGCUUCGACUUCAGGUAACACCAUAGAAAACUUGGUCUUUGGAAGAACCAGUUUCACCAACAGAGGAUUGAGCAUCA
B21: chr4:11888808:11888809:-_ENSMUSG00000049225_ENSMUST00000108301|mus_hu|motif|central (ssRNA)
RNA: GGGAGUUCUACAGUCCGACGAUCGUGCUUGUGCCACUGGAGAAUGGGUAGCAGUGCCCGGCCGCUCUCCACUGCAUUUUCAAUCUCGGGCAAAGUCUCAUGGGGUAACAAAGAGACAGCAAUAUAAUAAAAGAGUCUUUCACUCAACAGAGGAUUGAGCAUCA
B22: chr1:66463027:66463028:+_ENSMUSG00000015222_ENSMUST00000114013|mus_mus|motif|central (ssRNA)
RNA: GGGAGUUCUACAGUCCGACGAUCUUUUCUUUCAGGAGUGGAAAUUCUGCCUCUCCCGGUUUUAAAAGGCUUUUCUUUUCGGUGUUUCUCGAGAGACGGUCUCCGAGCAUCCUUCUCAGCUCUCUCCUCUUUAGGAAUAGUUUCCAACAGAGGAUUGAGCAUCA

The target of the assay is T1, UNK ZnF1-3. Description: nsRBNS (natural sequence RNA bind-n-seq); RBNS binding buffer (assumed for nsRBNS): 25 mM Tris pH 7.5, 150 mM KCl, 3 mM MgCl2, 0.01% Triton X-100, 500 ug/ml BSA, 20 U/ml SUPERase-In, 4 C; UNK is unkempt and MSI1 is Musashi-1; names of the RNAs are library labels; protein concentration not given here; high values mean tight binding.
For B1, the binding signal turned out to be 0.73 enrichment R. Molecule B2 registered a binding signal of 1.32 enrichment R. B3 returned a binding signal of 0.473 enrichment R. With B4, the binding signal was found to be 1.12 enrichment R.

B5 showed a binding signal of 1.24 enrichment R.

The molecule B6 came in with a binding signal of 0.948 enrichment R. With B7 the figure was 1.27 enrichment R; with B8, 0.797 enrichment R. With B9 the figure was 1.16 enrichment R. Under B10 stands 0.863 enrichment R; under B11, 0.956 enrichment R. B12: the binding signal came out at 0.816 enrichment R.

As for B13, the binding signal was 1.52 enrichment R.

Molecule B14 came in with a binding signal of 0.872 enrichment R. Under B15 stands 0.986 enrichment R; under B16, 1.19 enrichment R; under B17, 1.44 enrichment R. Molecule B18 displayed a binding signal of 2.36 enrichment R. With B19 the figure was 2.02 enrichment R. With B20, the binding signal was determined as 1.26 enrichment R. With B21 the figure was 1.5 enrichment R; with B22, 0.405 enrichment R.
